A compilation of properties of binary mixtures (doi:10.5541/ijot.303607)
Some of these densities may be calculated back from excess volumes.

Assay: xn = mol fraction of the nth substance listed
Details: 101 kPa

CC(O)C(=O)[O-].[NH3+]CCO (configuration not stated) + CCO
mass density [kg/m3]
Details	x2 = 0.0543	x2 = 0.1051	x2 = 0.206	x2 = 0.3151	x2 = 0.4144	x2 = 0.5122	x2 = 0.6116	x2 = 0.7232	x2 = 0.8109	x2 = 0.9528
288.15 K	–	1189.1	1167.8	1142.7	–	1083.6	1045.7	–	943.8	–
290.65 K	1195.6	1187.5	–	1141.1	1113.6	1081.9	1043.9	991.8	941.9	840.5
293.15 K	1194.1	1186	1164.6	1139.4	–	–	1042.2	990	940	838.4
295.65 K	1192.6	1184.4	1163	1137.8	1110.3	1078.5	1040.4	988.1	938.1	836.3
298.15 K	–	–	1161.4	1136.1	1108.7	–	1038.6	986.3	936.1	834.2
300.65 K	–	–	1161.4	1136.1	1108.7	1076.8	1038.6	986.3	936.1	834.2
303.15 K	1187.9	1179.7	–	–	1105.4	1073.4	1035.1	–	932.1	830
305.65 K	1186.3	1178.1	1156.6	1131.3	–	–	1033.3	980.7	930.2	827.9
308.15 K	–	1176.6	1155	1129.7	1102.1	1070	1031.5	978.8	928.4	825.8
310.65 K	1183.2	1175	1153.5	1128.1	1100.4	1068.2	1029.7	–	926.4	–
313.15 K	–	1173.4	1151.9	1126.5	1098.7	1066.5	1027.9	975	924.5	821.5
315.65 K	–	1171.9	1150.3	1124.9	1097.1	1064.8	1026.1	973.2	922.5	–
318.15 K	–	1170.4	1148.8	–	1095.4	1063.1	1024.3	971.3	920.5	817.1
320.65 K	1177.1	1168.9	1147.2	1121.6	–	1061.3	1022.5	–	918.5	814.8
323.15 K	1175.6	1167.3	1145.6	1120	1092.1	1059.6	1020.7	967.5	916.5	–

CC(O)C(=O)[O-].[NH3+]CCO (configuration not stated) + CO
mass density [kg/m3]
Details	x2 = 0.0675	x2 = 0.1469	x2 = 0.2586	x2 = 0.3811	x2 = 0.4275	x2 = 0.518	x2 = 0.6083	x2 = 0.7069	x2 = 0.7972	x2 = 0.8985
288.15 K	1199.2	–	1173.5	1150.1	1140.1	1117.8	1089.2	1050.6	–	920.9
290.65 K	1197.7	1187.5	1172	–	1138.5	1116.2	1087.5	1048.8	998.7	918.9
293.15 K	–	1185.9	1170.4	–	–	1114.5	1085.8	1046.9	996.8	916.8
295.65 K	1194.6	1184.4	–	1145.2	–	–	1084	–	994.9	–
298.15 K	1193.1	1182.8	1167.2	–	1133.7	1111.2	1082.3	–	992.9	–
300.65 K	1191.5	1181.2	1165.6	1142	1132.1	–	1080.5	1041.5	991	910.6
303.15 K	1190	1179.6	1164	1140.4	1130.5	–	–	1039.7	988.9	908.5
305.65 K	1188.4	1178.1	1162.4	1138.8	1128.8	1106.2	1077.1	1037.9	986.4	906.4
308.15 K	1186.9	1176.5	1160.9	1137.2	1127.2	1104.5	1075.3	–	985.2	904.3
310.65 K	1185.3	1174.9	1159.3	1135.6	1125.6	1102.8	1073.6	1034.2	983.4	902.2
313.15 K	1183.8	1173.4	–	1134	1123.9	1101.1	–	1032.4	–	–
315.65 K	1182.3	1171.9	1156.2	1132.4	–	1099.4	1070.1	1030.5	979.5	898
318.15 K	1180.8	–	1154.6	1130.7	1120.7	1097.7	1068.3	1028.6	–	895.8
320.65 K	1179.3	1168.9	1153	1129.1	1119	1096.1	1066.6	1026.8	975.6	893.5
323.15 K	–	1167.3	1151.5	1127.5	–	1094.4	1064.8	1024.9	973.5	890.6

CC(O)C(=O)[O-].[NH3+]CCO (configuration not stated) + O
mass density [kg/m3]
Details	x1 = 0.0088	x1 = 0.0135	x2 = 0.3197	x2 = 0.5253	x2 = 0.6892	x2 = 0.9027	x2 = 0.9293	x2 = 0.949	x2 = 0.9707
288.15 K	1015.4	–	–	1191.3	–	1109.2	1089.8	1071.5	1045.9
290.65 K	1014.9	1022.2	–	1189.7	1173	–	1088.7	1070.5	1045.1
293.15 K	1014.3	1021.5	1196.9	1188.2	1171.5	1106.7	1087.6	1069.6	–
295.65 K	1013.6	1020.8	1195.3	1186.7	1170	–	1086.4	1068.5	1043.4
298.15 K	1012.9	1020.1	1193.8	–	1168.5	1104.3	1085.3	1067.5	1042.5
300.65 K	1012.1	–	1192.3	1183.7	–	–	1084.1	–	1041.6
303.15 K	1011.3	1018.4	1190.7	1182.2	1165.5	–	1082.9	–	1040.6
305.65 K	1010.5	–	1189.2	1180.7	1164	–	1081.7	1064.2	1039.6
308.15 K	1009.6	1016.6	–	1179.2	1162.5	1099	1080.4	1063	1038.6
310.65 K	1008.6	–	1186.2	–	1160.9	–	1079.2	1061.8	1037.5
313.15 K	1007.6	–	1184.7	–	1159.4	1096.3	1077.9	1060.6	1036.4
315.65 K	1006.6	1013.5	1183.2	1174.6	–	1094.9	1076.6	1059.4	–
318.15 K	1005.5	1012.4	1181.6	–	1156.3	1093.5	–	1058.1	–
320.65 K	–	1011.3	1180.1	1171.5	1154.8	1092.1	–	–	1032.8
323.15 K	1003.2	1010.1	1178.6	–	–	1090.7	1072.5	1055.5	–
